Measurements as given in the supplement of paper PMC4996465.
Viability of KB3-1 and Nalm-6 cells after 48 h of drug alone (CellTiter-Glo), 11 doses over about 4.5 log units. % of DMSO wells, lower = more cell loss; AC50 from the fitted curve, lower = more potent. No active / inactive call. Nalm-6 was screened in two runs. AC50 is listed only for well-fitted inhibitory curves. KB3-1 is a HeLa-derived carcinoma line, Nalm-6 a B-cell precursor leukaemia line.

Experiments:
[1] = system: Nalm-6; assay: viability (% of DMSO control); higher = more viable cells
Description: (§1)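 Eleven-dose screen of the NCATS MIPE 3 library on cells without co-treatment; CellTiter-Glo after 48 h, as % of DMSO wells.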

[2] = system: KB3-1; assay: as above
Description: as §1

[3] = system: Nalm-6; assay: log AC50 of viability decrease (48 h) (log10 M); higher = less potent
Description: (§2)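 Eleven-dose screen of the NCATS MIPE 3 library on cells without co-treatment; CellTiter-Glo after 48 h. AC50 from the curve fit; only inhibitory curves of the better fit classes are listed.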

[4] = system: KB3-1; assay: as above
Description: as §2

CC[C@H](C1CC[C@H](C)C(O1)[C@@H](C)[C@H](O)[C@H](C)C(=O)[C@H](CC)C2O[C@@]\3(O[C@@]4(CC[C@](C)(O4)C5CC[C@](O)(CC)[C@H](C)O5)[C@H](O)\C=C3)[C@H](C)C[C@@H]2C)C(O)=O (stereo not given in full) [Salinomycin]
Conditions | log AC50 of viability decrease | viability [%]
[1], run: 1, 0.00078 µM | – | 116
[1], run: 1, 0.00234 µM | – | 115
[1], run: 1, 0.00702 µM | – | 115
[1], run: 1, 0.0211 µM | – | 90.7
[1], run: 1, 0.0632 µM | – | 47.3
[1], run: 1, 0.19 µM | – | 49.7
[1], run: 1, 0.569 µM | – | 31.1
[1], run: 1, 1.71 µM | – | 26.3
[1], run: 1, 5.12 µM | – | 59.9
[1], run: 1, 15.4 µM | – | 25.6
[1], run: 1, 46.1 µM | – | 4.77
[1], run: 2, 0.00078 µM | – | 102
[1], run: 2, 0.00234 µM | – | 97
[1], run: 2, 0.00702 µM | – | 92.2
[1], run: 2, 0.0211 µM | – | 80.7
[1], run: 2, 0.0632 µM | – | 41.7
[1], run: 2, 0.19 µM | – | 30
[1], run: 2, 0.569 µM | – | 16.4
[1], run: 2, 1.71 µM | – | 8.54
[1], run: 2, 5.12 µM | – | 38.7
[1], run: 2, 15.4 µM | – | 10.4
[1], run: 2, 46.1 µM | – | 2.77
[2], 0.00078 µM | – | 106
[2], 0.00234 µM | – | 104
[2], 0.00702 µM | – | 104
[2], 0.0211 µM | – | 100
[2], 0.0632 µM | – | 91.6
[2], 0.19 µM | – | 90.2
[2], 0.569 µM | – | 90.3
[2], 1.71 µM | – | 85.3
[2], 5.12 µM | – | 77.8
[2], 15.4 µM | – | 56.6
[2], 46.1 µM | – | 10.5
[3], run: 1 | -7.38 | –
[3], run: 2 | -7.38 | –

Conditions | log AC50 of viability decrease
[4] | -4.68

ClC/1=C(NCCN2CCOCC2)/C(=O)C3=C(C=CC=N3)C1=O [DA-3003-1]
Conditions | log AC50 of viability decrease | viability [%]
[1], run: 1, 0.00078 µM | – | 92.4
[1], run: 1, 0.00234 µM | – | 99.2
[1], run: 1, 0.00702 µM | – | 105
[1], run: 1, 0.0211 µM | – | 114
[1], run: 1, 0.0632 µM | – | 106
[1], run: 1, 0.19 µM | – | 118
[1], run: 1, 0.569 µM | – | 109
[1], run: 1, 1.71 µM | – | 78.6
[1], run: 1, 5.12 µM | – | 5.57
[1], run: 1, 15.4 µM | – | 5.56
[1], run: 1, 46.1 µM | – | 1.23
[1], run: 2, 0.00078 µM | – | 106
[1], run: 2, 0.00234 µM | – | 104
[1], run: 2, 0.00702 µM | – | 103
[1], run: 2, 0.0211 µM | – | 110
[1], run: 2, 0.0632 µM | – | 108
[1], run: 2, 0.19 µM | – | 101
[1], run: 2, 0.569 µM | – | 87.5
[1], run: 2, 1.71 µM | – | 75.6
[1], run: 2, 5.12 µM | – | 2.96
[1], run: 2, 15.4 µM | – | 3.24
[1], run: 2, 46.1 µM | – | 1.16
[2], 0.00078 µM | – | 95.6
[2], 0.00234 µM | – | 103
[2], 0.00702 µM | – | 99.5
[2], 0.0211 µM | – | 104
[2], 0.0632 µM | – | 102
[2], 0.19 µM | – | 108
[2], 0.569 µM | – | 102
[2], 1.71 µM | – | 98.6
[2], 5.12 µM | – | 81.2
[2], 15.4 µM | – | 44.6
[2], 46.1 µM | – | 2.66
[3], run: 1 | -5.68 | –
[3], run: 2 | -5.63 | –

Conditions | log AC50 of viability decrease
[4] | -4.83

CN1CCC(CNc2ccc3ncc(-c4cccc(OC(F)(F)F)c4)n3n2)CC1 [SGI-1776]
Conditions | log AC50 of viability decrease | viability [%]
[1], run: 1, 0.00078 µM | – | 94.8
[1], run: 1, 0.00234 µM | – | 106
[1], run: 1, 0.00702 µM | – | 113
[1], run: 1, 0.0211 µM | – | 104
[1], run: 1, 0.0632 µM | – | 107
[1], run: 1, 0.19 µM | – | 104
[1], run: 1, 0.569 µM | – | 94.2
[1], run: 1, 1.71 µM | – | 89.9
[1], run: 1, 5.12 µM | – | 83.1
[1], run: 1, 15.4 µM | – | 46.6
[1], run: 1, 46.1 µM | – | 2.21
[1], run: 2, 0.00078 µM | – | 108
[1], run: 2, 0.00234 µM | – | 108
[1], run: 2, 0.00702 µM | – | 108
[1], run: 2, 0.0211 µM | – | 108
[1], run: 2, 0.0632 µM | – | 113
[1], run: 2, 0.19 µM | – | 73.7
[1], run: 2, 0.569 µM | – | 103
[1], run: 2, 1.71 µM | – | 95
[1], run: 2, 5.12 µM | – | 90.9
[1], run: 2, 15.4 µM | – | 71.2
[1], run: 2, 46.1 µM | – | 2.45
[2], 0.00078 µM | – | 102
[2], 0.00234 µM | – | 107
[2], 0.00702 µM | – | 106
[2], 0.0211 µM | – | 109
[2], 0.0632 µM | – | 107
[2], 0.19 µM | – | 103
[2], 0.569 µM | – | 104
[2], 1.71 µM | – | 94
[2], 5.12 µM | – | 89.5
[2], 15.4 µM | – | 46.5
[2], 46.1 µM | – | 1.63
[3], run: 1 | -4.78 | –
[3], run: 2 | -4.68 | –

Conditions | log AC50 of viability decrease
[4] | -4.78

O=C1Nc2ccc(Cl)cc2[C@@](C#CC2CC2)(C(F)(F)F)O1 [Efavirenz]
Conditions | log AC50 of viability decrease | viability [%]
[1], run: 1, 0.00156 µM | – | 115
[1], run: 1, 0.00468 µM | – | 114
[1], run: 1, 0.014 µM | – | 113
[1], run: 1, 0.0421 µM | – | 117
[1], run: 1, 0.126 µM | – | 107
[1], run: 1, 0.379 µM | – | 113
[1], run: 1, 1.14 µM | – | 105
[1], run: 1, 3.41 µM | – | 114
[1], run: 1, 10.2 µM | – | 97.2
[1], run: 1, 30.7 µM | – | 72.6
[1], run: 1, 92.2 µM | – | 3.34
[1], run: 2, 0.00156 µM | – | 97.3
[1], run: 2, 0.00468 µM | – | 93.1
[1], run: 2, 0.014 µM | – | 103
[1], run: 2, 0.0421 µM | – | 103
[1], run: 2, 0.126 µM | – | 110
[1], run: 2, 0.379 µM | – | 99.9
[1], run: 2, 1.14 µM | – | 104
[1], run: 2, 3.41 µM | – | 105
[1], run: 2, 10.2 µM | – | 91.3
[1], run: 2, 30.7 µM | – | 80.2
[1], run: 2, 92.2 µM | – | 2.84
[2], 0.00156 µM | – | 108
[2], 0.00468 µM | – | 109
[2], 0.014 µM | – | 106
[2], 0.0421 µM | – | 109
[2], 0.126 µM | – | 110
[2], 0.379 µM | – | 112
[2], 1.14 µM | – | 101
[2], 3.41 µM | – | 105
[2], 10.2 µM | – | 88.5
[2], 30.7 µM | – | 90.6
[2], 92.2 µM | – | 4.4
[3], run: 1 | -4.42 | –
[3], run: 2 | -4.37 | –

Conditions | log AC50 of viability decrease
[4] | -4.32

CCN(CC)CCCCNc1ncc2cc(-c3cc(OC)cc(OC)c3)c(NC(=O)NC(C)(C)C)nc2n1
Conditions | log AC50 of viability decrease | viability [%]
[1], run: 1, 0.00078 µM | – | 114
[1], run: 1, 0.00234 µM | – | 125
[1], run: 1, 0.00702 µM | – | 128
[1], run: 1, 0.0211 µM | – | 117
[1], run: 1, 0.0632 µM | – | 122
[1], run: 1, 0.19 µM | – | 124
[1], run: 1, 0.569 µM | – | 116
[1], run: 1, 1.71 µM | – | 110
[1], run: 1, 5.12 µM | – | 101
[1], run: 1, 15.4 µM | – | 79.8
[1], run: 1, 46.1 µM | – | 2.94
[1], run: 2, 0.00078 µM | – | 103
[1], run: 2, 0.00234 µM | – | 106
[1], run: 2, 0.00702 µM | – | 106
[1], run: 2, 0.0211 µM | – | 107
[1], run: 2, 0.0632 µM | – | 107
[1], run: 2, 0.19 µM | – | 115
[1], run: 2, 0.569 µM | – | 110
[1], run: 2, 1.71 µM | – | 107
[1], run: 2, 5.12 µM | – | 97.1
[1], run: 2, 15.4 µM | – | 77.2
[1], run: 2, 46.1 µM | – | 3.17
[2], 0.00078 µM | – | 105
[2], 0.00234 µM | – | 106
[2], 0.00702 µM | – | 110
[2], 0.0211 µM | – | 107
[2], 0.0632 µM | – | 109
[2], 0.19 µM | – | 107
[2], 0.569 µM | – | 107
[2], 1.71 µM | – | 112
[2], 5.12 µM | – | 111
[2], 15.4 µM | – | 83.2
[2], 46.1 µM | – | 31.2
[3], run: 1 | -4.73 | –
[3], run: 2 | -4.68 | –

Conditions | log AC50 of viability decrease
[4] | -4.68
